Source: PubChem BioAssay (NCATS)
“And” between values parts separate entries of the source, which are not always exact repeats. Identical values can stand only once. The shares of active, inactive and inconclusive entries below differ from those in the screen. Potencies beside an inconclusive call are fits to weak or partial responses and may not hold up. The source made the active and inactive calls. Calls follow the shape of the dose curve; as a rule, active = well fitted curve in the direction sought with a large enough effect; inconclusive = small, poorly fitted or top-dose-only effect, or another doubt; inactive = no such curve, though single readings can be large; an effect the other way counts as inactive or inconclusive.

Legend:
[1] = NS1 protein of Zika virus - qHTS assay to identify small molecule inhibitors in human HEK 293 cells (AID 1347053); conditions: HEK293 ZIKV MR766 infection, NS1 TR-FRET, 24 h; series mostly up to 46.1 µM; also: nearly all actives have a fitted effect of over 55% in size
Method in brief: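 Following 20 h seeding, HEK 293 cells took compound, then 1 h later ZIKV MR766 (MOI = 0.5). Incubation ran 24 h at 37 C before TR-FRET detection of NS1; a drop in signal indicates inhibition.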

[2] = qHTS of pediatric cancer cell lines to identify multiple opportunities for drug repurposing: Primary screen for TC32 cells (AID 1347089); conditions: TC32 Ewing sarcoma viability, CellTiter-Glo luminescence, 48 h; series mostly up to 45.8 µM; also: nearly all actives have a fitted effect of over 60% in size
Method in brief: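 A viability screen of TC32 cells was run over 48 h, with primary MIPE doses spanning 0.78 nM–46 µM and NPC doses 0.59 nM–46 µM. ATP luminescence (CellTiter-Glo) served as the read-out.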

[3] = qHTS of pediatric cancer cell lines to identify multiple opportunities for drug repurposing: Primary screen for DAOY cells (AID 1347090); conditions: DAOY medulloblastoma viability, CellTiter-Glo luminescence, 48 h; series mostly up to 46 µM; also: nearly all actives have a fitted effect of over 55% in size
Method in brief: (§1)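 Eight- or eleven-point concentration series, 48 h treatment at 37 degrees C in growth media; readout CellTiter-Glo luminescence. Potency and efficacy were taken from the concentration-response curves.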

[4] = qHTS of pediatric cancer cell lines to identify multiple opportunities for drug repurposing: Primary screen for SJ-GBM2 cells (AID 1347091); conditions: SJ-GBM2 viability, CellTiter-Glo luminescence, 48 h; series mostly up to 46 µM
Method in brief: as §1
Potency is read from the fitted curve at half-maximal effect; tags tell the direction and shape of the fitted curve.

For `O=C(C=CC=Cc1ccc2c(c1)OCO2)N1CCCCC1`, the Potency [1] was inconclusive: 37.2 µM [inhibitor, single point].

In the case of `O=c1oc2cc(O)ccc2s1`, the Potency [1] is reported as “inactive”.

For `CCC[C@@H]1C[C@@H](C(=O)N[C@@H]([C@H]2O[C@H](SC)[C@H](O)[C@@H](O)[C@H]2O)[C@@H](C)O)N(C)C1`, the Potency [1] was “inactive”.

For `Cc1ccc2nc(NCCN)c3ncc(C)n3c2c1`, the Potency [1] was active: 26.4 µM.

With `Cc1nc(N)sc1-c1ccnc(Nc2ccc(N3CCOCC3)cc2)n1` the Potency [1] was inconclusive: 37.2 µM [inhibitor, single point], the Potency [2] was inconclusive: 2.62 µM [cytotoxic, full curve] and the Potency [3] was active: 18.7 µM.

With `COCCCN1CCC(NC(=O)c2cc(Cl)c(N)c3c2OCC3)CC1` the Potency [1] was “inactive and inconclusive: 37.2 µM [inhibitor, single point]”.

For `Cc1[nH]c(C=C2C(=O)Nc3ccccc32)c(C)c1CCC(=O)O`, the Potency [1] was “inactive”.

For `Cc1ccc(-n2nc(C(C)(C)C)cc2NC(=O)Nc2ccc(OCCN3CCOCC3)c3ccccc23)cc1`, the Potency [1] was inconclusive: 26.4 µM [inhibitor, single point] and the Potency [2] was inconclusive: 1.05 µM [cytotoxic, partial curve, poor fit].

With `CN1CCN(C2=Nc3cc(Cl)ccc3Nc3ccccc32)CC1` the Potency [1] was inconclusive: 37.2 µM [inhibitor, single point].

With `O=C(O)c1c(O)c(-c2ccccc2)nc2ccccc12` the Potency [1] was “inactive”.

For `COc1ccc(-c2cc(=S)ss2)cc1`, the Potency [1] was “inactive”.

With `Nc1ccc(C(=O)O)c(O)c1` the Potency [1] was “inactive”.

In the case of `CN1CCC[C@@H]1Cc1c[nH]c2ccc(CCS(=O)(=O)c3ccccc3)cc12`, the Potency [1] is reported as “inactive”.

In the case of `CNC1[C@H](O)C(O[C@@H]2C(O)C(O[C@H]3O[C@H]([C@@H](C)NC)CC[C@H]3N)[C@@H](N)C[C@H]2N)OC[C@]1(C)O` (stereo not given in full), the Potency [1] is reported as “inactive”.

In the case of `COC(=O)Nc1nc2ccc(C(=O)C3CC3)cc2[nH]1`, the Potency [1] is reported as “inactive” and the Potency [2] is reported as active: 1.33 µM.

With `COC(=O)Nc1ccc(-c2nc(N3CCOCC3)c3cnn(C4CCN(C(=O)OC)CC4)c3n2)cc1` the Potency [1] was inconclusive: 33.2 µM [inhibitor, single point], the Potency [2] was inconclusive: 5.87 µM [cytotoxic, partial curve] and the Potency [4] was active: 4.69 µM.

In the case of `CC(C)C(=O)Nc1ncc(-c2cc(C(F)F)nn2-c2c(Cl)cccc2Cl)s1`, the Potency [1] is reported as active: 13.2 µM, the Potency [3] is reported as inconclusive: 37.2 µM [cytotoxic, single point] and the Potency [4] is reported as active: 20.9 µM.

With `C[C@@H](O[C@H]1OCCN(Cc2n[nH]c(=O)[nH]2)[C@@H]1c1ccc(F)cc1)c1cc(C(F)(F)F)cc(C(F)(F)F)c1` the Potency [1] was inconclusive: 37.2 µM [inhibitor, single point] and the Potency [3] was inconclusive: 18.7 µM [cytotoxic, partial curve].

For `CCCCCCCCOc1ccccc1C(=O)Nc1ccc(C(=O)OCC[N+](C)(CC)CC)cc1`, the Potency [1] was inconclusive: 37.2 µM [inhibitor, single point], the Potency [3] was inconclusive: 18.7 µM [cytotoxic, partial curve, poor fit] and inconclusive: 33.5 µM [cytotoxic, single point] and the Potency [4] was inconclusive: 4.69 µM [cytotoxic, partial curve] and inconclusive: 33.5 µM [cytotoxic, single point].

For `CN(C)c1ccc(C(=C2C=CC(=[N+](C)C)C=C2)c2ccccc2)cc1`, the Potency [1] was inconclusive: 4.47 µM [inhibitor, full curve, poor fit], the Potency [2] was active: 0.105 µM and the Potency [3] was active: 0.106 µM. The Potency [4] was inconclusive: 26.6 µM [cytotoxic, single point].

With `COC(=O)Nc1nc2ccc(Sc3ccccc3)cc2[nH]1` the Potency [1] was inconclusive: 1.32 µM [inhibitor, single point], the Potency [3] was active: 1.06 µM and inconclusive: 935 nM [cytotoxic, full curve] and the Potency [4] was inconclusive: 29.9 µM [cytotoxic, single point].

In the case of `CC(C)OC(=O)CCCC=CC[C@@H]1[C@H](C=C[C@@H](O)COc2cccc(C(F)(F)F)c2)[C@H](O)C[C@@H]1O`, the Potency [1] is reported as inconclusive: 37.2 µM [inhibitor, single point], the Potency [3] is reported as inconclusive: 23.5 µM [cytotoxic, single point] and the Potency [4] is reported as active: 23.5 µM.
